The source of these data is PubChem BioAssay AID463173 (ICCB-Longwood Screening Facility, Harvard Medical School, 2010).

Molecules are shown by their SMILES. Out of some 52,000 compounds screened, about 1,700 (3.3%) were called active. Rule as the data show it: active = survival mostly below about 52% (no sharp cut-off); inactive = mostly above about 56%. This is one part of the list.

The test concerns Wild type. Kind of test: S. aureus survival, RN4220 and DeltatarO strains – OD600, teichoic acid synthesis inhibitors, primary screen (AID 463173). Particulars: S. aureus RN4220 wild type/DeltatarO growth, OD600, 18 h, hits give low values, screened at 18.75 µg/mL (by protocol).
Consider `N#CCCn1nc(-c2ccccc2)c2ccccc2c1=O`, for which the survival was inactive: 115%.
The result for `COCCn1c(SCC(=O)c2c(C)[nH]c3ccccc23)nc2cc(C(=O)NC(C)C)ccc2c1=O` reads inactive: 74%.
Consider `CCOc1ccc(CCNC(=O)Cn2ccc3cc(S(=O)(=O)N4CCCCC4)ccc32)cc1`, for which the survival is inactive: 73%.
For `CCOc1ccc2[nH]c(=O)c(CN(CCO)C(=O)Nc3ccc(OC)cc3)cc2c1` the value was inactive: 107%; for `COc1cccc(CNC(=O)c2ccc3c(c2)N(Cc2ccc(F)cc2Cl)C(=O)c2ccccc2S3)c1`, inactive: 19%; for `Cc1ccc(Cl)cc1NC(=O)Nc1cn(CC(C)C)c(=O)c2ccccc12`, inactive: 91%.
For `Cc1ccccc1CN1C(=O)c2ccccc2Sc2ccc(C(=O)NCc3ccccc3)cc21` the value was inactive: 32%.
For `O=C(Nc1ccccc1F)c1nc(SCc2ccccc2F)ncc1Cl` the value was inactive: 92%.
On to `CCN(CCCNC(=O)c1cc(Nc2ccc(OC)cc2)nc2ccccc12)c1cccc(C)c1`, for which the survival was inactive: 85%.
For the molecule `CCOC(=O)c1ccc(NC(=O)CSc2nnc(-c3ccncc3)n2-c2ccccc2)cc1`, the survival is inactive: 75%.
For `Cc1ccc(-c2nc(S(=O)(=O)c3ccc(C)cc3)c(SCC(=O)c3ccccc3)o2)cc1` the value was inactive: 71%; for `Cc1cccc(C)c1NC(=O)Cn1c(=O)n(Cc2ccccc2Cl)c(=O)c2cccnc21`, inactive: 83%; for `CCN(C(=O)CSc1nc2ccccc2n1Cc1ccccc1C#N)c1ccccc1`, inactive: 72%.
For `O=C(CN1CCOCC1)NNc1nc(-c2ccccc2)c2cc(Cl)ccc2n1` the value was inactive: 104%.
As for `COc1ccc(-n2nc(C(=O)Nc3ccc(C)cn3)c3c4ccccc4n(C)c3c2=O)cc1Cl`, the survival is inactive: 75%.
For `Cc1ccc(-n2c(=O)[nH]c3cc(C(=O)NCCc4ccccc4)ccc3c2=O)cc1` the value was inactive: 85%.
As for `Cc1ccc2c(C)c(C(=O)NCC(c3ccc(Cl)cc3)N3CCOCC3)oc2c1` (configuration not stated), the survival is inactive: 33%.
The result for `COc1cc(NC(=O)C2CCN(c3nnc(C)c4c(C)n(-c5ccccc5)nc34)CC2)cc(OC)c1` reads inactive: 85%; that for `Cc1ccc(NC(=O)NC(C)c2c(-n3cccc3)sc(C)c2C)cc1F` (configuration not stated), inactive: 74%; that for `Cc1ccc2c(c1)c(=O)c1ccccc1n2CCCC(=O)Nc1ccc(Cl)cc1C`, inactive: 74%.
The result for `CCOC(=O)c1ccccc1NC(=O)c1cnn(-c2ccc(OC)cc2)c1C1CCN(C(=O)OC(C)(C)C)CC1` reads inactive: 69%; that for `O=c1c2c3c(sc2ncn1CCn1cnc2sc4c(c2c1=O)CCCC4)CCCC3`, inactive: 111%.
Consider `CCOc1ccc(CNC(=O)c2cnc3c(C)cccn3c2=O)cc1`, for which the survival is inactive: 73%.
The result for `O=C(O)CCC(=O)Nc1ccc(N2CCCCC2)c(C(=O)O)c1` reads inactive: 100%; that for `N#C/C(=C\c1ccccc1F)c1nc2ccccc2c(=O)[nH]1`, inactive: 78%; that for `c1ccc(Cc2[nH]nc3ccccc23)cc1`, inactive: 99%.
For `O=C(/C=C/c1ccccc1)Nc1nc(-c2cccs2)ns1` the value was inactive: 90%; for `CC(=O)c1ccc(NC(=O)CN2C(=O)CCc3cc(S(=O)(=O)N4CCC(C)CC4)ccc32)cc1`, inactive: 72%.
For `COc1cccc(NC(=O)CCc2nnc3n(CC(C)C)c(=O)c4ccccc4n23)c1` the value was inactive: 92%; for `Cc1cc(C)cc(NS(=O)(=O)c2ccc3[nH]cc(C(=O)NCc4ccco4)c(=O)c3c2)c1`, inactive: 68%; for `CCCn1ccc2c(OCC(=O)Nc3ccc(C(F)(F)F)cc3)cccc2c1=O`, inactive: 78%.
As for `O=C(Nc1ccc(Cl)c(C(F)(F)F)c1)c1cc2nc(-c3ccc4c(c3)OCO4)cc(C(F)(F)F)n2n1`, the survival was inactive: 82%.
Consider `COc1ccc(NC(=O)CSc2n[nH]c(-c3ccccc3)n2)cc1Cl`, for which the survival is inactive: 79%.
Take `O=C(Nc1ccccc1F)c1oc2ccccc2c1NC(=O)C12CC3CC(CC(C3)C1)C2`: the survival was inactive: 121%.
For `CCOc1ccccc1C(=O)Nc1cc2c(cc1N1CCCCC1)n(C)c(=O)n2C` the value was inactive: 99%; for `CCC(O)c1nc2ccccc2n1CCOc1cc(C)cc(C)c1` (configuration not stated), inactive: 105%.
Take `CCOC(=O)c1noc2nc(C)n(CC(=O)Nc3ccc(Br)cc3C)c(=O)c12`: the survival was inactive: 121%.
For `COC(=O)N1N=C(C)CC1(O)c1ccc(Cl)cc1` (configuration not stated) the value was inactive: 129%; for `CCOc1ccccc1N(CC)C(=O)c1cc2c(=O)n(CC)c3ccccc3c2s1`, inactive: 123%.
As to `N#CC1=C(N)SC(N)=C(C#N)C1c1cccs1`, the survival is inactive: 93%.
With `Cc1cc(Nc2cccc(C(F)(F)F)c2)nc2ccc(NC(=O)c3cncc(Br)c3)cc12`, the survival was inactive: 128%.
For `Cc1ccc(CN(C(=O)c2ccc([N+](=O)[O-])cc2)c2ccccn2)cc1` the value was inactive: 82%; for `COC(CNS(=O)(=O)c1ccc(S(=O)(=O)NCc2ccccc2)cc1)OC`, inactive: 106%; for `COc1ccc(OC)c(-n2cnc3cc(C(=O)NCCc4ccccc4)ccc32)c1`, inactive: 75%.
In the case of `CC(C)OC(=O)c1c(NC(=O)c2cc3nc(-c4ccccc4)cc(C(F)(F)F)n3n2)sc2c1CCCC2`, the survival was inactive: 101%.
The result for `Cc1ccc(-c2nnc3ccccc3c2C(=O)Nc2cccc(C(F)(F)F)c2)cc1` reads inactive: 120%; that for `Cc1ccc(OCC(=O)Nc2ccccc2C(=O)OCc2cc(=O)n3c(C)csc3n2)cc1`, inactive: 72%.
Turning to `N#Cc1cc2c(=O)n3ccccc3nc2n(-c2nnc(SCc3ccccc3F)s2)c1=O`, the survival was inactive: 105%.
With `CC(C(=O)NCc1ccc(Cl)cc1)n1ccc2cc(S(=O)(=O)N3CCCC3)ccc21` (configuration not stated), the survival was inactive: 53%.
The result for `CC1=C(C(=O)Nc2ccc(C)cc2C)C(c2ccc[nH]2)n2ncnc2N1` (configuration not stated) reads inactive: 72%; that for `CSc1nnc2c(n1)OC(c1cccc(O)c1Cl)Nc1ccccc1-2` (configuration not stated), inactive: 71%; that for `CCOC(=O)C1CCCN(S(=O)(=O)c2ccc3c(c2)N(C)C(=O)CC(=O)N3C)C1` (configuration not stated), inactive: 107%.
The result for `COc1cc(-c2nnc(SCC(=O)Nc3cccc(C#N)c3)o2)cc(OC)c1OC` reads inactive: 119%; that for `COCCCNC(=O)Cn1c(=O)n(-c2ccc(Cl)cc2)c(=O)c2c3c(sc21)CCCCC3`, inactive: 92%; that for `COc1ccc(CCNC(=O)CN2C(=O)COc3ccc(S(=O)(=O)N4CCCCCC4)cc32)cc1OC`, inactive: 73%.
For `O=C(Cn1ncc2c3ccccc3n(Cc3ccc(Cl)cc3)c2c1=O)NC1CCCCCC1` the value was inactive: 90%; for `CCc1ccc(CNC(=O)c2cnc3sc(N(CC)CC)nn3c2=O)cc1`, inactive: 76%; for `CCc1ccccc1NC(=O)C(=O)NCCc1sc(-c2cccc(C)c2)nc1C`, inactive: 69%.
With `CCOc1ccc(-n2c(=O)c3sc4ccccc4c3n(Cc3ccc(F)cc3)c2=O)cc1`, the survival was inactive: 87%.
For `Cc1ccc(NC(=O)c2ccc(CN3CC(=O)N4CCCCC4C3=O)cc2)cc1C` (configuration not stated) the value was inactive: 73%; for `Cc1ccc(Cl)cc1N1CCN(S(=O)(=O)c2ccc3c(c2)CC(=O)N3C)CC1`, inactive: 113%; for `Cc1cccc(-c2cc3nc4c(c(N5CCCC5)n3n2)CCCC4)c1`, inactive: 123%.
The result for `CC(C)c1cnc2c(c1SCC(=O)Nc1cccc([N+](=O)[O-])c1)c(=O)n(C)c(=O)n2C` reads inactive: 97%; that for `COCCCNc1ncnc2c1nnn2C`, inactive: 91%; that for `CCn1c(SCC(=O)Nc2ccc(C)c(C)c2)nnc1-c1nonc1NC(C)=O`, inactive: 117%.
For `CCCCC(CC)Cn1c(Oc2ccccc2)nc2c1c(=O)n(C)c(=O)n2C` (configuration not stated), the survival is active: -2%.
For `CCn1c(=S)sc2nc(C)sc21` the value was inactive: 99%; for `Cc1ccc(N(CC(=O)Nc2ccc(OC(F)(F)F)cc2)S(=O)(=O)c2c(C)noc2C)cc1`, inactive: 86%; for `Cc1[nH]c2c(C)cccc2c1CCNC(=O)c1cc2ccccc2oc1=O`, inactive: 74%.
With `O=c1oc2ccc3ccccc3c2cc1-c1nnc(Nc2cc(C(F)(F)F)ccc2Cl)s1`, the survival was inactive: 74%.
For `COCCn1c(SCC(=O)c2c[nH]c3ccccc23)nc2cc(C(=O)NCC(C)C)ccc2c1=O` the value was inactive: 73%.
For `COc1cccc(N2CCN(C(=O)c3nc(-c4ccc(Cl)cc4)n4c3CCCCC4)CC2)c1` the value was inactive: 85%; for `CCOc1ccc2[nH]c(=O)c(CN(C(C)=O)C3CCCC3)cc2c1`, inactive: 104%.
Turning to `Cc1ccc(O)c(NC(=O)c2nc3nc(C)cc(C(F)F)n3n2)c1`, the survival was inactive: 131%.
The result for `COC(=O)C1CCCc2c1[nH]c1ccc(Cl)cc21` (configuration not stated) reads inactive: 142%; that for `COC(=O)c1ccc(NC(=O)C2CCN(S(=O)(=O)c3ccc4c(c3)CCCN4C(C)=O)CC2)cc1`, inactive: 95%; that for `Cc1nc(N2CCCC2)ncc1C(=O)NCc1ccccc1Cl`, inactive: 74%.
With `CCc1nnc2n1N(C(C)=O)C(c1ccc(C(C)(C)C)cc1)=C(C(C)=O)S2`, the survival was inactive: 70%.
The result for `CCc1ccc(CNC(=O)c2cc3c(s2)-c2ccccc2OC3)cc1` reads inactive: 95%; that for `COc1cc(NC(=O)CSc2nc3nc(C)c(Cc4ccccc4)c(C)n3n2)cc(OC)c1OC`, inactive: 77%.
Take `O=S(=O)(c1cccc(Cl)c1)c1nnn2c1nc(NC1CCCC1)c1sccc12`: the survival was inactive: 95%.
On to `Cc1cc(S(=O)(=O)NCCC2=CCCCC2)ccc1-n1cnnn1`, for which the survival was inactive: 103%.
In the case of `Cc1[nH]c2ccccc2c1C1(O)C(=O)N(Cc2ccc(Cl)cc2)c2ccccc21` (configuration not stated), the survival is inactive: 47%.
For `COc1ccc(CC(=O)Nc2sc3c(c2C(=O)Nc2ccc(C)cc2)CCCCC3)cc1` the value was inactive: 136%.
For `CCc1cccc(C)c1Nc1c(-c2cccc(O)c2)nc2sccn12` the value was inactive: 106%.
As for `CC1(C)CC(NC(=O)NCc2ccc3c(c2)OCO3)CC(C)(CNC(=O)NCc2ccc3c(c2)OCO3)C1` (configuration not stated), the survival was inactive: 117%.
As to `CCOC(=O)c1cc2c(=O)n3ccccc3nc2n(CC2CCCO2)c1=NC(=O)c1cc(C)cc(C)c1` (configuration not stated), the survival was inactive: 68%.
